Results reported in the supplement of paper PMC9151546.
Repeats are few or missing, and single values can be far off.

Experiments:
CHO-K1 [1] = experiment: micronucleus frequency (% of nucleated events); higher = more micronuclei (genotoxic)
CHO-K1 [2] = experiment: relative survival (nuclei to bead ratio vs DMSO control) (% of vehicle control); higher = more surviving cells
CHO-K1 [3] = experiment: hypodiploid nuclei frequency (% of nucleated events); higher = more hypodiploid events (aneugenic)
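For hypodiploid nuclei frequency (% of nucleated events) in this document: hypodiploid nuclei gated on a flow cytometer with 488 nm excitation after SYTOX Green staining, cultures at 37 °C, positive controls vinblastine without S9 and cyclophosphamide with S9.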
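For micronucleus frequency (% of nucleated events) in this document: cells lysed with nuclei stained by SYTOX Green, then micronucleus-gated events counted against nucleated events by flow cytometry with 488 nm excitation.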
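For relative survival (nuclei to bead ratio vs DMSO control) in this document: Lysed-cell nuclei stained with SYTOX Green and counted against counting beads by flow cytometry at 488 nm excitation, with vinblastine (no S9) and cyclophosphamide (plus S9) as positive controls.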

c1ccc(C2CO2)cc1 (centres undefined) [Styrene oxide]
Settings	hypodiploid nuclei frequency, CHO-K1 [3] [%]	micronucleus frequency, CHO-K1 [1] [%]	relative survival, CHO-K1 [2]
concentration: 4.5 (µM), S9 metabolic activation: with S9, exposure time: 3-4 hours	0.42	1.44	137
concentration: 4.5 (µM), S9 metabolic activation: without S9, exposure time: 24 hours	0.46	1.2	102
concentration: 5.63 (µM), S9 metabolic activation: with S9, exposure time: 3-4 hours	0.42	1.96	141
concentration: 5.63 (µM), S9 metabolic activation: without S9, exposure time: 24 hours	0.54	1.16	98.5
concentration: 7.04 (µM), S9 metabolic activation: with S9, exposure time: 3-4 hours	0.32	1.44	137
concentration: 7.04 (µM), S9 metabolic activation: without S9, exposure time: 24 hours	0.48	1.34	101
concentration: 8.8 (µM), S9 metabolic activation: with S9, exposure time: 3-4 hours	0.3	1.4	113
concentration: 8.8 (µM), S9 metabolic activation: without S9, exposure time: 24 hours	0.62	1.56	85.2
concentration: 11 (µM), S9 metabolic activation: with S9, exposure time: 3-4 hours	0.14	1.36	102
concentration: 11 (µM), S9 metabolic activation: without S9, exposure time: 24 hours	0.58	1.34	115
concentration: 13.7 (µM), S9 metabolic activation: with S9, exposure time: 3-4 hours	0.2	1.7	137
concentration: 13.7 (µM), S9 metabolic activation: without S9, exposure time: 24 hours	0.76	1.28	112
concentration: 17.2 (µM), S9 metabolic activation: with S9, exposure time: 3-4 hours	0.3	2.14	127
concentration: 17.2 (µM), S9 metabolic activation: without S9, exposure time: 24 hours	0.62	1.24	97.3
concentration: 21.5 (µM), S9 metabolic activation: with S9, exposure time: 3-4 hours	0.26	1.26	115
concentration: 21.5 (µM), S9 metabolic activation: without S9, exposure time: 24 hours	0.54	1.42	94.9
concentration: 26.8 (µM), S9 metabolic activation: with S9, exposure time: 3-4 hours	0.32	1.08	112
concentration: 26.8 (µM), S9 metabolic activation: without S9, exposure time: 24 hours	0.72	1.16	67.2
concentration: 33.6 (µM), S9 metabolic activation: with S9, exposure time: 3-4 hours	0.28	1.28	108
concentration: 33.6 (µM), S9 metabolic activation: without S9, exposure time: 24 hours	0.74	2.02	101
concentration: 41.9 (µM), S9 metabolic activation: with S9, exposure time: 3-4 hours	0.34	1.08	102
concentration: 41.9 (µM), S9 metabolic activation: without S9, exposure time: 24 hours	0.92	1.48	107
concentration: 52.4 (µM), S9 metabolic activation: with S9, exposure time: 3-4 hours	0.28	1	110
concentration: 52.4 (µM), S9 metabolic activation: without S9, exposure time: 24 hours	1.04	1.98	94.9
concentration: 65.5 (µM), S9 metabolic activation: with S9, exposure time: 3-4 hours	0.32	1.56	93.8
concentration: 65.5 (µM), S9 metabolic activation: without S9, exposure time: 24 hours	0.92	1.6	69.8
concentration: 81.9 (µM), S9 metabolic activation: with S9, exposure time: 3-4 hours	0.34	1.44	94.7
concentration: 81.9 (µM), S9 metabolic activation: without S9, exposure time: 24 hours	0.7	1.54	99.3
concentration: 102 (µM), S9 metabolic activation: with S9, exposure time: 3-4 hours	0.2	1	112
concentration: 102 (µM), S9 metabolic activation: without S9, exposure time: 24 hours	0.82	1.42	108
concentration: 128 (µM), S9 metabolic activation: with S9, exposure time: 3-4 hours	0.2	1.68	90.7
concentration: 128 (µM), S9 metabolic activation: without S9, exposure time: 24 hours	0.8	2.02	108
concentration: 160 (µM), S9 metabolic activation: with S9, exposure time: 3-4 hours	0.3	1.6	88
concentration: 160 (µM), S9 metabolic activation: without S9, exposure time: 24 hours	0.86	2.42	76.6
concentration: 200 (µM), S9 metabolic activation: with S9, exposure time: 3-4 hours	0.14	1.62	109
concentration: 200 (µM), S9 metabolic activation: without S9, exposure time: 24 hours	0.92	3.04	88.1

O=C(OC[C@H]1O[C@@H](OC(=O)c2cc(O)c(O)c(OC(=O)c3cc(O)c(O)c(O)c3)c2)[C@H](OC(=O)c2cc(O)c(O)c(OC(=O)c3cc(O)c(O)c(O)c3)c2)[C@@H](OC(=O)c2cc(O)c(O)c(OC(=O)c3cc(O)c(O)c(O)c3)c2)[C@@H]1OC(=O)c1cc(O)c(O)c(OC(=O)c2cc(O)c(O)c(O)c2)c1)c1cc(O)c(O)c(OC(=O)c2cc(O)c(O)c(O)c2)c1 [Tannic acid]
Settings	hypodiploid nuclei frequency, CHO-K1 [3] [%]	micronucleus frequency, CHO-K1 [1] [%]	relative survival, CHO-K1 [2]
concentration: 0.137 (µM), S9 metabolic activation: with S9, exposure time: 3-4 hours	0.22	1.58	85.1
concentration: 0.137 (µM), S9 metabolic activation: without S9, exposure time: 24 hours	0.78	2.46	106
concentration: 0.172 (µM), S9 metabolic activation: with S9, exposure time: 3-4 hours	0.24	1.62	80
concentration: 0.172 (µM), S9 metabolic activation: without S9, exposure time: 24 hours	0.6	1.68	93
concentration: 0.215 (µM), S9 metabolic activation: with S9, exposure time: 3-4 hours	0.22	1.68	72.9
concentration: 0.215 (µM), S9 metabolic activation: without S9, exposure time: 24 hours	0.62	1.66	124
concentration: 0.268 (µM), S9 metabolic activation: with S9, exposure time: 3-4 hours	0.12	1.76	82.3
concentration: 0.268 (µM), S9 metabolic activation: without S9, exposure time: 24 hours	0.72	1.76	118
concentration: 0.335 (µM), S9 metabolic activation: with S9, exposure time: 3-4 hours	0.22	1.48	79.8
concentration: 0.335 (µM), S9 metabolic activation: without S9, exposure time: 24 hours	0.84	2	98.1
concentration: 0.419 (µM), S9 metabolic activation: with S9, exposure time: 3-4 hours	0.42	1.86	103
concentration: 0.419 (µM), S9 metabolic activation: without S9, exposure time: 24 hours	0.76	2.24	108
concentration: 0.524 (µM), S9 metabolic activation: with S9, exposure time: 3-4 hours	0.12	1.36	77.6
concentration: 0.524 (µM), S9 metabolic activation: without S9, exposure time: 24 hours	0.6	1.8	107
concentration: 0.655 (µM), S9 metabolic activation: with S9, exposure time: 3-4 hours	0.24	1.48	76.2
concentration: 0.655 (µM), S9 metabolic activation: without S9, exposure time: 24 hours	0.92	2.06	95.5
concentration: 0.819 (µM), S9 metabolic activation: with S9, exposure time: 3-4 hours	0.2	0.96	96.7
concentration: 0.819 (µM), S9 metabolic activation: without S9, exposure time: 24 hours	0.56	2.42	110
concentration: 1.02 (µM), S9 metabolic activation: with S9, exposure time: 3-4 hours	0.22	1.8	83.2
concentration: 1.02 (µM), S9 metabolic activation: without S9, exposure time: 24 hours	0.66	2.44	99.5
concentration: 1.28 (µM), S9 metabolic activation: with S9, exposure time: 3-4 hours	0.38	2.46	87.7
concentration: 1.28 (µM), S9 metabolic activation: without S9, exposure time: 24 hours	0.88	1.86	123
concentration: 1.6 (µM), S9 metabolic activation: with S9, exposure time: 3-4 hours	0.48	5.38	76.6
concentration: 1.6 (µM), S9 metabolic activation: without S9, exposure time: 24 hours	0.94	2.08	98.6
concentration: 2 (µM), S9 metabolic activation: with S9, exposure time: 3-4 hours	0.54	7.01	51.9
concentration: 2 (µM), S9 metabolic activation: without S9, exposure time: 24 hours	0.96	2.2	85
concentration: 2.5 (µM), S9 metabolic activation: with S9, exposure time: 3-4 hours	0.9	5.27	51.2
concentration: 2.5 (µM), S9 metabolic activation: without S9, exposure time: 24 hours	1.2	2.54	69.2
concentration: 3.12 (µM), S9 metabolic activation: with S9, exposure time: 3-4 hours	0.93	4.31	47.5
concentration: 3.12 (µM), S9 metabolic activation: without S9, exposure time: 24 hours	1.2	2.72	56.8
concentration: 3.9 (µM), S9 metabolic activation: with S9, exposure time: 3-4 hours	0.78	4.73	47.5
concentration: 3.9 (µM), S9 metabolic activation: without S9, exposure time: 24 hours	0.74	2.16	53.2
concentration: 4.88 (µM), S9 metabolic activation: with S9, exposure time: 3-4 hours	0.83	4.84	47.6
concentration: 4.88 (µM), S9 metabolic activation: without S9, exposure time: 24 hours	0.86	1.6	42.6
concentration: 6.1 (µM), S9 metabolic activation: with S9, exposure time: 3-4 hours	0.87	3.89	52.6
concentration: 6.1 (µM), S9 metabolic activation: without S9, exposure time: 24 hours	–	–	38.8
